# Reference: the supplement of paper PMC8728848
# This is one part of the list.
# B1: Gal 3 (Homo sapiens), P17931 (protein)
# chain: MADNFSLHDALSGSGNPNPQGWPGAWGNQPAGAGGYPGASYPGAYPGQAPPGAYPGQAPPGAYHGAPGAYPGAPAPGVYPGPPSGPGAYPSSGQPSAPGAYPATGPYGAPAGPLIVPYNLPLPGGVVPRMLITILGTVKPNANILDFQRGNDVAFHFNPRFNENNRRVIVCNTKLDNNWAREERQSVFPFESGKPFKIQVLVEPDHFKVAVNDAHLLQYNHRVKKLNEISKLGISGDIDLTSASYTMI
# Key:
# Assay in all cases: glycan array binding signal (z-score within array); higher = stronger binding
# Details in all cases: glycan notation: IUPAC condensed, linker removed; mutation: G182A
# Glc(a1-6)Glc(a1-6)Glc = target: Glc(a1-6)Glc(a1-6)Glc
# Summary of the method: (§1)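 The binding signal is a Z-score computed within each array. Data were drawn from 3228 arrays in the Consortium for Functional Glycomics database, restricted to those with a known protein sequence. Scores were averaged over arrays of the same protein sequence at different concentrations or buffers, and over linkers, and negative values can be taken as non-binding.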
# Glc(b1-4)Glc = target: Glc(b1-4)Glc
# Summary of the method: as §1
# Glc(b1-6)Glc = target: Glc(b1-6)Glc
# Summary of the method: as §1
# GlcA(b1-3)Gal = target: GlcA(b1-3)Gal
# Summary of the method: as §1
# GlcA(b1-3)GlcNAc = target: GlcA(b1-3)GlcNAc
# Summary of the method: as §1
# GlcA(b1-6)Gal = target: GlcA(b1-6)Gal
# Summary of the method: as §1
# [1] = target: GlcNAc(a1-3)Gal(b1-4)GlcNAc
# Summary of the method: as §1
# [2] = target: GlcNAc(a1-4)Gal(b1-3)GlcNAc
# Summary of the method: as §1
# [3] = target: GlcNAc(a1-4)Gal(b1-4)GalNAc
# Summary of the method: as §1
# [4] = target: GlcNAc(a1-4)Gal(b1-4)GlcNAc
# Summary of the method: as §1
# [5] = target: GlcNAc(a1-4)Gal(b1-4)GlcNAc(b1-3)Gal(b1-4)Glc
# Summary of the method: as §1
# [6] = target: GlcNAc(a1-4)Gal(b1-4)GlcNAc(b1-3)Gal(b1-4)GlcNAc
# Summary of the method: as §1
# [7] = target: GlcNAc(a1-4)Gal(b1-4)GlcNAc(b1-3)Gal(b1-4)GlcNAc(b1-3)Gal(b1-4)GlcNAc
# Summary of the method: as §1
# [8] = target: GlcNAc(a1-4)Gal(b1-4)GlcNAc(b1-3)Gal(b1-4)[Fuc(a1-3)]GlcNAc(b1-3)Gal(b1-4)[Fuc(a1-3)]GlcNAc
# Summary of the method: as §1
# [9] = target: GlcNAc(a1-6)Gal(b1-4)GlcNAc
# Summary of the method: as §1
# [10] = target: GlcNAc(b1-2)Gal(b1-3)GalNAc
# Summary of the method: as §1
# [11] = target: GlcNAc(b1-2)Man(a1-3)[GlcNAc(b1-2)Man(a1-6)]Man(b1-4)GlcNAc(b1-4)GlcNAc
# Summary of the method: as §1
# [12] = target: GlcNAc(b1-2)Man(a1-3)[GlcNAc(b1-2)Man(a1-6)]Man(b1-4)GlcNAc(b1-4)[Fuc(a1-6)]GlcNAc
# Summary of the method: as §1
# [13] = target: GlcNAc(b1-2)[GlcNAc(b1-4)]Man(a1-3)[GlcNAc(b1-2)Man(a1-6)]Man(b1-4)GlcNAc(b1-4)GlcNAc
# Summary of the method: as §1
# GlcNAc(b1-3)Gal = target: GlcNAc(b1-3)Gal
# Summary of the method: as §1
# [14] = target: GlcNAc(b1-3)Gal(b1-3)GalNAc
# Summary of the method: as §1
# GlcNAc(b1-3)Gal(b1-4)Glc = target: GlcNAc(b1-3)Gal(b1-4)Glc
# Summary of the method: as §1
# [15] = target: GlcNAc(b1-3)Gal(b1-4)GlcNAc
# Summary of the method: as §1
# [16] = target: GlcNAc(b1-3)Gal(b1-4)GlcNAc(b1-3)Gal(b1-4)GlcNAc
# Summary of the method: as §1
# GlcNAc(b1-3)GalNAc = target: GlcNAc(b1-3)GalNAc
# Summary of the method: as §1
# GlcNAc(b1-3)Man = target: GlcNAc(b1-3)Man
# Summary of the method: as §1
# [17] = target: GlcNAc(b1-3)[GlcNAc(b1-4)][GlcNAc(b1-6)]GlcNAc
# Summary of the method: as §1
# [18] = target: GlcNAc(b1-3)[GlcNAc(b1-6)]Gal(b1-4)GlcNAc
# Summary of the method: as §1
# [19] = target: GlcNAc(b1-3)[GlcNAc(b1-6)]GalNAc
# Summary of the method: as §1
# [20] = target: GlcNAc(b1-4)Gal(b1-4)GlcNAc
# Summary of the method: as §1
# GlcNAc(b1-4)GlcNAc = target: GlcNAc(b1-4)GlcNAc
# Summary of the method: as §1
# [21] = target: GlcNAc(b1-4)GlcNAc(b1-4)GlcNAc
# Summary of the method: as §1
# [22] = target: GlcNAc(b1-4)GlcNAc(b1-4)GlcNAc(b1-4)GlcNAc(b1-4)GlcNAc
# Summary of the method: as §1
# [23] = target: GlcNAc(b1-4)GlcNAc(b1-4)GlcNAc(b1-4)GlcNAc(b1-4)GlcNAc(b1-4)GlcNAc
# Summary of the method: as §1
# [24] = target: GlcNAc(b1-4)[GlcNAc(b1-6)]GalNAc
# Summary of the method: as §1
# [25] = target: GlcNAc(b1-6)Gal(b1-4)GlcNAc
# Summary of the method: as §1
# GlcNAc(b1-6)GalNAc = target: GlcNAc(b1-6)GalNAc
# Summary of the method: as §1
# GlcNAc3Prop(b1-4)GlcNAc = target: GlcNAc3Prop(b1-4)GlcNAc
# Summary of the method: as §1
binder,measurement,setting,value
B1,glycan array binding signal (z-score),Glc(a1-6)Glc(a1-6)Glc,-0.194
same,glycan array binding signal (z-score),Glc(b1-4)Glc,-0.191
same,glycan array binding signal (z-score),Glc(b1-6)Glc,-0.191
same,glycan array binding signal (z-score),GlcA(b1-3)Gal,-0.173
same,glycan array binding signal (z-score),GlcA(b1-3)GlcNAc,-0.192
same,glycan array binding signal (z-score),GlcA(b1-6)Gal,-0.191
same,glycan array binding signal (z-score),[1],-0.194
same,glycan array binding signal (z-score),[2],-0.185
same,glycan array binding signal (z-score),[3],-0.192
same,glycan array binding signal (z-score),[4],-0.189
same,glycan array binding signal (z-score),[5],-0.192
same,glycan array binding signal (z-score),[6],1.04
same,glycan array binding signal (z-score),[7],9.32
same,glycan array binding signal (z-score),[8],-0.116
same,glycan array binding signal (z-score),[9],-0.193
same,glycan array binding signal (z-score),[10],-0.168
same,glycan array binding signal (z-score),[11],-0.192
same,glycan array binding signal (z-score),[12],-0.161
same,glycan array binding signal (z-score),[13],-0.189
same,glycan array binding signal (z-score),GlcNAc(b1-3)Gal,-0.186
same,glycan array binding signal (z-score),[14],-0.182
same,glycan array binding signal (z-score),GlcNAc(b1-3)Gal(b1-4)Glc,-0.162
same,glycan array binding signal (z-score),[15],-0.19
same,glycan array binding signal (z-score),[16],4.53
same,glycan array binding signal (z-score),GlcNAc(b1-3)GalNAc,-0.194
same,glycan array binding signal (z-score),GlcNAc(b1-3)Man,-0.152
same,glycan array binding signal (z-score),[17],-0.181
same,glycan array binding signal (z-score),[18],-0.142
same,glycan array binding signal (z-score),[19],-0.171
same,glycan array binding signal (z-score),[20],-0.174
same,glycan array binding signal (z-score),GlcNAc(b1-4)GlcNAc,-0.192
same,glycan array binding signal (z-score),[21],-0.195
same,glycan array binding signal (z-score),[22],-0.19
same,glycan array binding signal (z-score),[23],-0.192
same,glycan array binding signal (z-score),[24],-0.194
same,glycan array binding signal (z-score),[25],-0.195
same,glycan array binding signal (z-score),GlcNAc(b1-6)GalNAc,-0.185
same,glycan array binding signal (z-score),GlcNAc3Prop(b1-4)GlcNAc,-0.182
